The results in this text go back to patent US20110039874A1 (Northeastern University, priority 2007, published 2011).

Each structure is given as a SMILES string.

The test addresses T1, Monoacylglycerol lipase (MGL) (Rattus norvegicus, UniProt Q8R431).
T1 sequence (Q8R431 1-303): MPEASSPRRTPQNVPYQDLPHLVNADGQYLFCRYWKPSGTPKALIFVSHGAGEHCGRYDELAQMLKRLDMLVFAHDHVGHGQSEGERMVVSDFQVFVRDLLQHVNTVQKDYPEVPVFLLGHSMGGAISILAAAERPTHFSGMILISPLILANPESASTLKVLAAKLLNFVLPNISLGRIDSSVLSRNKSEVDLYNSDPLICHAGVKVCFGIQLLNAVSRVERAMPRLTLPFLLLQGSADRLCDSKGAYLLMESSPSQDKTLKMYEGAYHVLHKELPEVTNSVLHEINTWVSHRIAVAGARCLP
To be noted: 100 µM.

By inhibition is commonly meant the drop in the measured response relative to a control, in per cent. On to `O=C(Nc1ccc(-c2ccccc2Cl)cc1)OC12CC3CC(CC(C3)C1)C2` [53.37%], for which the inhibition turned out to be 61%. To `OC(O)(c1ccccn1)C(F)(F)CCCCOc1ccccc1` [89.9 Hydrate form] belongs 69%; to `O=C(CCCCCCOc1ccc(OCc2ccccc2)cc1)C(F)(F)F` [Compound 23.4, 1,1,1-Trifluoro-8-[4-(Benzyloxy)phenoxy]-2-octanone], 34%. To `O=C(CCCOc1ccccc1OCc1ccccc1)C(F)(F)F` [Compound 23.8, 1,1,1-Trifluoro-5-[2-(Benzyloxy)phenoxy]-2-pentanone] belongs 20%; to `O=C(CCCCOc1ccccc1OCc1ccccc1)C(F)(F)F` [Compound 23.9, 1,1,1-Trifluoro-6-[2-(Benzyloxy)phenoxy]-2-hexanone], 47%; to `O=C(CCCOc1ccccc1)C(F)(F)F` [Compound 23.11, 1,1,1-Trifluoro-5-phenoxy-2-pentanone], 13%. On to `O=C(CCCCOc1ccccc1)C(F)(F)F` [Compound 23.12, 1,1,1-Trifluoro-6-phenoxy-2-hexanone], for which the inhibition is 3%. To `O=C(CCCOc1ccc(O)cc1)C(F)(F)F` [Compound 24.1, 1,1,1-Trifluoro-5-[4-(hydroxy)phenoxy]-2-pentanone] belongs 6%; to `O=C(CCCCOc1ccc(O)cc1)C(F)(F)F` [Compound 24.2, 1,1,1-Trifluoro-6-[4-(hydroxy)phenoxy]-2-hexanone], 21%.

The compound `O=C(CCCCCOc1ccc(O)cc1)C(F)(F)F` [Compound 24.3, 1,1,1-Trifluoro-7-[4-(hydroxy)phenoxy]-2-heptanone] returned an inhibition of 17%. For `Oc1cccc(OCCCC(O)(O)C(F)(F)F)c1` [Compound 24.5, 1,1,1-Trifluoro-2,2-dihydroxy-5-[3-(hydroxy)phenoxy]pentane], the inhibition came to 3%. To `O=C(CCCCOc1cccc(O)c1)C(F)(F)F` [Compound 24.6, 1,1,1-Trifluoro-6-[3-(hydroxy)phenoxy]-2-hexanone] belongs 9%; to `O=C(CCCOc1ccccc1O)C(F)(F)F` [Compound 24.8, 1,1,1-Trifluoro-5-[2-(hydroxy)phenoxy]-2-pentanone], 4%. To `O=C(CCCCCOc1ccccc1O)C(F)(F)F` [Compound 24.10, 1,1,1-Trifluoro-7-[2-(hydroxy)phenoxy]-2-heptanone] belongs 19%; to `O=C(CCCc1ccccc1)C(F)(F)F` [Compound 27.1, 1,1,1-Trifluoro-5-phenyl-2-pentanone], 5%. Compound `O=C(CCCCc1ccccc1)C(F)(F)F` [Compound 27.2, 1,1,1-Trifluoro-6-phenyl-2-hexanone] displayed an inhibition of 21%. To `O=C(CCCCCc1ccccc1)C(F)(F)F` [Compound 27.3, 1,1,1-Trifluoro-7-phenyl-2-heptanone] belongs 36%; to `COc1ccc(CCCCC(=O)C(F)(F)F)cc1` [Compound 27.4, 1,1,1-Trifluoro-6-(4-methoxy-phenyl)-2-hexanone], 13%; to `O=C(Cc1cccc(-c2cccc(OCc3ccccc3)c2)c1)C(F)(F)F` [Compound 35, 1,1,1-Trifluoro-3-(3-benzyloxy-biphenyl-3-yl)-2-propanone], 21%. Turning to `CCCCCCc1ccc(O)c(-c2ccc(C(=O)C(F)(F)F)cc2)c1OC` [Compound 40.3, 2,2,2-Trifluoro-1-(3′-hexyl-6′-hydroxy-2′-methoxybiphenyl-4-yl)ethanone], the inhibition was 81%. On to `CC(Cl)OC(=O)OCCCCOc1cccc(OCc2ccccc2)c1` (centres unmarked) [Compound 46.3], for which the inhibition stood at 35%. The compound `Cc1csc(NC(=O)OCCCCOc2cccc(OCc3ccccc3)c2)n1` [Compound 46.4] showed an inhibition of 24%. To `O=C(Nc1ccc(Br)cc1)OC1CCCCC1` [Compound 48.1, (4-Bromophenyl)carbamic acid cyclohexyl ester] belongs 98%; to `CCOC(=O)Nc1ccc(Br)cc1` [Compound 48.2], 44%. To `O=C(Nc1ccc(Br)cc1)OCc1ccccc1` [Compound 48.3, (4-Bromophenyl)carbamic acid benzyl ester] belongs 92%. To `O=C(Nc1ccc(I)cc1)Oc1ccccc1` [Compound 48.6, (4-Iodophenyl)carbamic acid phenyl ester] belongs 52%. With `O=C(Nc1ccc(Br)cc1)OCc1cccc(Br)n1` [Compound 48.7], the inhibition was determined as 55%. To `O=C(Nc1ccc(Br)cc1)OCc1ccc2c(c1)OCO2` [Compound 48.8] belongs 32%; to `O=C(Nc1ccc(Br)cc1)OCc1ccco1` [Compound 48.9], 29%; to `CCCCCCC(C)(C)c1cc(OCOC)c(-c2ccc(NC(=O)OCC)cc2)c(OCOC)c1` [Compound 52.2, 2′,6′-Bis(methoxymethoxy)-4′-(1,1-dimethylheptyl)[1,1′-biphenyl]-4-yl carbamic acid ethyl ester], 92%. Compound `CCCCCCC(C)(C)c1cc(OCOC)c(-c2ccc(NC(=O)OCc3ccccc3)cc2)c(OCOC)c1` [Compound 52.3, 2′,6′-Bis(methoxymethoxy)-4′-(1,1-dimethylheptyl)[1,1′-biphenyl]-4-yl carbamic acid benzyl ester] yielded an inhibition of 96%. To `CCCCCCC(C)(C)c1cc(O)c(-c2ccc(NC(=O)OC3CCCCC3)cc2)c(O)c1` [Compound 53.1, 2′,6′-Dihydroxy-4′-(2-methyloctan-2-yl)biphenyl-4-yl carbamic acid cyclohexyl ester] belongs 41%. `CCCCCCC(C)(C)c1cc(O)c(-c2ccc(NC(=O)OCC)cc2)c(O)c1` [Compound 53.2, 2′,6′-Dihydroxy-4′-(1,1-dimethylheptyl)[1,1′-biphenyl]-4-yl carbamic acid ethyl ester] yielded an inhibition of 63%. To `O=C(Nc1ccc([N+](=O)[O-])cc1)OC1C2CC3CC(C2)CC1C3` (centres unmarked) [Compound 53.5] belongs 88%; to `CC(C)(C)c1ccc(NC(=O)OC23CC4CC(CC(C4)C2)C3)cc1` [Compound 53.7], 34%. To `O=C(Nc1ccc(C(F)(F)F)cc1)OC12CC3CC(CC(C3)C1)C2` [Compound 53.8] belongs 54%. To `O=C(Nc1ccc(Cl)cc1Cl)OC12CC3CC(CC(C3)C1)C2` [Compound 53.11] belongs 89%; to `O=C(Nc1cccc2ccccc12)OC12CC3CC(CC(C3)C1)C2` [Compound 53.12], 17%; to `O=C(Nc1cccc(Br)c1)OC1C2CC3CC(C2)CC1C3` (centres unmarked) [Compound 53.13], 76%. `CC12CC3CC(C)(C1)CC(COC(=O)Nc1ccc(Br)cc1)(C3)C2` [Compound 53.19]: the inhibition stood at 78%. To `COc1cc(CNC(=O)OC23CC4CC(CC(C4)C2)C3)cc(OC)c1` [Compound 53.23] belongs 22%. Consider `O=C(Nc1cccc(-c2ccccc2)c1)OC12CC3CC(CC(C3)C1)C2` [Compound 53.27], for which the inhibition is 88%. To `O=C(Nc1ccc(-c2cc(Cl)ccc2Cl)cc1)OC1C2CC3CC(C2)CC1C3` (centres unmarked) [Compound 53.29] belongs 84%. As for `O=C(Nc1ccc(-c2cc(Cl)cc(Cl)c2)cc1)OC12CC3CC(CC(C3)C1)C2` [Compound 53.30], the inhibition was 72%.

In turn, `O=C(Nc1ccc(-c2cc(F)cc(F)c2)cc1)OC12CC3CC(CC(C3)C1)C2` [Compound 53.31] came in with an inhibition of 54%. To `CC(=O)c1cccc(-c2ccc(NC(=O)OC3C4CC5CC(C4)CC3C5)cc2)c1` (centres unmarked) [Compound 53.32] belongs 18%. For `COc1cc(-c2ccc(NC(=O)OC34CC5CC(CC(C5)C3)C4)cc2)cc(OC)c1OC` [Compound 53.33], the inhibition came to 21%. To `O=C(Nc1ccc(-c2ccccc2)cc1)OC1C2CC3CC(C2)CC1C3` (centres unmarked) [Compound 53.35] belongs 78%; to `CSc1ccccc1-c1ccc(NC(=O)OC23CC4CC(CC(C4)C2)C3)cc1` [Compound 53.36], 12%; to `CCCCCN(C)C(=O)OC12CC3CC(CC(C3)C1)C2` [Compound 53.45], 13%. To `CCCCN(C)C(=O)OC12CC3CC(CC(C3)C1)C2` [Compound 53.46] belongs 14%; to `O=C(OC12CC3CC(CC(C3)C1)C2)N1CCC(c2ccccc2)CC1` [Compound 53.47], 22%; to `COCC(=O)NCc1ccc(Br)cc1` [Compound 57.1], 44%. To `O=C(NCc1ccc(Br)cc1)OCc1ccccc1` [Compound 57.2, (4-Bromobenzyl)carbamic acid benzyl ester] belongs 92%; to `Cc1nnc(C(=O)CCCCCCOc2ccccc2)o1` [Compound 65.1, 7-Phenoxy-1-(5-methyl-1,3,4-oxadiazol-2-yl)-heptan-1-one], 6%. In turn, `O=C(CCCCCCOc1ccc(O)cc1)c1nnc(COCc2ccccc2)o1` [Compound 74.2, 1-(5-benzyloxymethyl-1,3,4-oxadiazol-2-yl)-7-(4-hydroxy-phenoxy)-heptan-1-one] returned an inhibition of 29%. To `O=C1c2ccccc2S(=O)(=O)N1CCCCOc1ccccc1` [Compound 83.2, N-(4-Phenoxy-butyl)saccharin] belongs 2%; to `O=C1c2ccccc2S(=O)(=O)N1CCCCOc1ccc(OCc2ccccc2)cc1` [Compound 83.3, N-[4-(4-Benzyloxy-phenoxy)-butyl]saccharin], 1%; to `CCOC(=O)C(=O)CCCCOc1cccc(OCc2ccccc2)c1` [Compound 87.1], 82%.
